# Results as given in PubChem BioAssay AID588855 (National Center for Advancing Translational Sciences (NCATS), 2011).
# In all, about 410,000 compounds went through this assay and about 5,000 (1.2%) were called active. The inconclusive results got no clear call from the source; some entries with a clear call stand among them for comparison. Calls come from the whole dose curve; as a rule, active = well fitted inhibition curve with a large enough effect; inconclusive = small, poorly fitted or top-dose-only effect; inactive = no such curve, though single readings can be large or run the other way. Where the call is inconclusive, the potency comes from a doubtful curve fit.
# Assay: qHTS for Inhibitors of TGF-b; note: nearly all actives have a fitted effect of over 65% in size
# Conditions: HepG2 CAGA-GFP TGF-b/SMAD3 reporter, GFP fluorescence, 18 h, TGF-beta stimulated, 500 pg/mL final; series mostly up to 46.1 µM; activity, negative = inhibition: at the top concentration
# Outline: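 Cell-based qHTS in HEPG2 carrying a CAGA-GFP Smad reporter; compounds added before 500 pg/mL final TGF-beta, 18 h incubation at 37 degrees C, GFP fluorescence quantified per cell by imaging cytometry.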
# % is set by controls: 0 for no effect and ±100 for the full control effect; potency is the fitted concentration of half-maximal effect; tags give direction and shape of the fitted curve.
Compound,Potency,"activity, negative = inhibition"
Cc1cc(NC(=O)CSc2nc3c([nH]c4ccccc43)c(=O)n2-c2ccccc2)no1,"inconclusive: 0.562 µM [inhibitor, partial curve, poor fit]",–
CCCN(CCC)Cc1cc(=O)oc2cc(OC)c(Cl)cc12,"inconclusive: 22.4 µM [inhibitor, partial curve, poor fit]",–
Cc1nonc1C1CCCN1Cc1cn[nH]c1-c1ccc(-c2ccccc2)cc1 (centres undefined),"inconclusive: 35.5 µM [inhibitor, partial curve, poor fit]",–
CCc1ccc(NC(=O)CSc2nccn2-c2cccc(C)c2C)cc1,"inconclusive: 20 µM [inhibitor, single point]",–
CN(CCc1ccccc1)C(=O)c1ccc(NC(=O)Cc2ccc(NC(=O)C3CCN(C(=O)C4CCCCC4)CC3)cc2)cc1,"inconclusive: 6.31 µM [inhibitor, single point]",–
COc1cc(NC(=O)c2cccs2)c(OC)cc1NC(=O)CCC(=O)Nc1ccc2ncccc2c1,"inconclusive: 35.5 µM [inhibitor, single point]",–
Cc1cc(NCc2ccccc2Cl)n2cnnc2n1,"inconclusive: 11.2 µM [inhibitor, partial curve]",–
CCCCC(=O)NC(c1ccc(OC)c(OC)c1)c1c(O)ccc2ccccc12 (centres undefined),"inconclusive: 15.8 µM [inhibitor, single point]",–
COc1ccc(N2CCN(C(=O)c3ccc(NS(=O)(=O)c4ccccc4)cc3)CC2)cc1,"inconclusive: 35.5 µM [inhibitor, single point]",–
Cc1cc(Cl)ccc1OCC(=O)N1CCCN(C(=O)COc2ccc(Cl)cc2C)CC1,"inconclusive: 11.2 µM [inhibitor, partial curve, poor fit]",–
CCOc1ccc2nc(NC(=O)CN3C(=O)NC4(CCCC4)C3=O)sc2c1,–,inactive: 2.8%
O=C(CS(=O)(=O)c1cccc2nsnc12)Nc1ccc(F)cc1,–,inactive: -11.1%
Nc1nc(SCC(=O)Nc2ncc(Cl)cc2Cl)n[nH]1,–,inactive: -6.46%
Cc1nnc(SCC(=O)Nc2ncc(Cc3ccc(F)cc3)s2)n1N,"inconclusive: 3.16 µM [inhibitor, full curve, poor fit]",–
COc1ccc(-c2cn3ccccc3n2)cc1[N+](=O)[O-],–,inactive: -11.5%
Cc1cccc(-c2nnn3c2nc(NCCc2ccc(S(N)(=O)=O)cc2)c2ccccc23)c1,inactive,–
CCCCCCn1c(=O)n2n(c1=O)[C@@H]1CN(S(=O)(=O)c3ccc(C)cc3)C[C@]1(O)[C@@H](OC(=O)NC1CCCC1)C2,active: 11.2 µM,–
COc1ccc(OC)c(NC(=O)CSc2cn(CC(=O)N3CCCCCC3)c3ccccc23)c1,"inconclusive: 3.16 µM [inhibitor, full curve, poor fit]",–
CCCc1[nH]n(-c2ccc(F)cc2)c(=O)c1C=Nc1cccc(F)c1,"inconclusive: 2.82 µM [inhibitor, partial curve, poor fit]",–
Cc1ccc(C(=O)C(=S)N2CCOCC2)cc1,"inconclusive: 35.5 µM [inhibitor, single point]",–

Compound,Potency,"activity, negative = inhibition"
Cc1ccc(Cl)cc1N1CCN(C(c2ccc(C#N)cc2)c2nnnn2C2CCCC2)CC1 (centres undefined),"inconclusive: 0.126 µM [inhibitor, full curve, poor fit]",–
O=C(NCc1ccc(F)cc1)c1cc(C2CCCCN2C(=O)CCCc2ccccc2)on1 (centres undefined),–,inactive: -1.11%
CN(C)S(=O)(=O)c1ccc(Nc2nc(C3CC3)nc3c2nnn3Cc2ccccc2Cl)cc1,"inconclusive: 0.112 µM [inhibitor, full curve, poor fit]",–
CCOC(=O)c1c(NC(=O)CSc2nnc(-c3cccc(C)c3)n2CC)sc(C(C)=O)c1C,"inconclusive: 35.5 µM [inhibitor, single point]",–
O=C(N/N=C/c1ccccn1)c1ccc(Br)cc1,"inconclusive: 11.2 µM [inhibitor, partial curve, poor fit]",–
CC1=C(C(=O)Nc2cccnc2)C(c2ccccc2)n2nc(SCc3ccccc3Cl)nc2N1 (centres undefined),"inconclusive: 0.794 µM [inhibitor, partial curve]",–
O=C(C1=C[C@@H](c2ccc(Br)cc2)C[C@@H](OCc2ccc(CO)cc2)O1)N1CCN(Cc2ccccc2)CC1,"inconclusive: 11.2 µM [inhibitor, partial curve, poor fit]",–
COc1ccc2cc(C)c3nnc(SCC(=O)Nc4cc(OC)c(OC)cc4C(=O)O)n3c2c1,–,inactive: -0.14%
O=C(NCc1ccccn1)c1coc(=O)c(Br)c1,"inconclusive: 35.5 µM [inhibitor, single point]",–
CC(=O)Nc1ccc(NC(=O)c2c(C)c(-c3ccccc3)nc3ccccc23)cc1,–,inactive: 0.0471%
CCN(CC)S(=O)(=O)c1ccc2c(c1)nc(CN(C)C(=O)Nc1cccc(Cl)c1)n2C,"inconclusive: 1.12 µM [inhibitor, full curve, poor fit]",–
CCCN(CCC)C(=O)CN1C(=O)CSc2ccc(S(=O)(=O)N3CCC(C)CC3)cc21,"inconclusive: 35.5 µM [inhibitor, single point]",–
CN1CCN(S(=O)(=O)c2cccc(C(=O)Oc3cccc(C#N)c3)c2)CC1,"inconclusive: 14.1 µM [inhibitor, partial curve, poor fit]",–
COc1ccc(Cn2c(CCC(=O)Nc3ccc(C)c(C)c3)nc3cccnc32)cc1,"inconclusive: 11.2 µM [inhibitor, partial curve]",–
C[C@@H]1CN([C@@H](C)CO)C(=O)CCCn2nncc2CO[C@H]1CN(C)C(=O)Nc1ccc(C(F)(F)F)cc1,"inconclusive: 20 µM [inhibitor, single point]",–
O=C(Oc1ccc(Cl)c2cccnc12)c1ccco1,active: 8.91 µM,–
COc1ccc(OCCn2c(C(C)Oc3ccccc3)nc3ccccc32)cc1 (centres undefined),active: 12.6 µM,–
CCc1nc2ccc(C(=O)N(C)CC(=O)Nc3ccc(Cl)c(C(F)(F)F)c3)cc2nc1CC,"inconclusive: 14.1 µM [inhibitor, partial curve, poor fit]",–
COc1cc(NC(=S)NCCc2c[nH]c3ccccc23)c(OC)cc1Cl,"inconclusive: 35.5 µM [inhibitor, single point]",–
